Results published in PubChem BioAssay AID900 (National Center for Advancing Translational Sciences (NCATS), 2007).
Among all 75,000 compounds or so, about 20 (0.03%) were called active. Inconclusive results, whose numbers are uncertain, are shown with a selection of clear calls. The call rests on the fitted dose curve; in most records, active means well fitted inhibition curve with a large enough effect; inconclusive means small, poorly fitted or top-dose-only effect; inactive means flat fitted curve, though single readings scatter. Potencies of inconclusive entries are left out as doubtful fits.

biological target: Caspase-1 (Homo sapiens) (UniProt P29466); experiment: qHTS Assay for Allosteric/Competitive Inhibitors of Caspase-1; settings: Caspase-1 enzyme, Ac-WEHD-AFC fluorogenic rate; activity change, negative = inhibition: at 57.5 µM (top of the series) unless noted;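 on activity change, negative = inhibition: plate controls were vehicle for no effect and no substrate for full effect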
From the text: NIH Molecular Libraries Screening Centers Network [MLSCN]
NIH Chemical Genomics Center [NCGC]
PI Name: Dr. James Wells,
Dr. Enrique Perez-Paya, Dr.Janice Williams, Dr. Dennis Wolan, a person
The caspases (Cysteine Aspartyl Protease) comprise a related family of 14 dimeric proteases that are critical mediators of apoptosis (programmed cell death) and inflammation. The caspases represent an important class of drug targets for stroke, ischemia, cancer and inflammatory diseases. […] One goal of this project was to identify compounds that act as allosteric inhibitors via stabilizing the procaspase form of the enzyme. Previous work in Well's laboratory has shown that such allosteric inhibitors can be identified and these act by binding at the dimer interface of enzyme (Hardy, Lam et al., 2004).
The biochemical assay was configured using purified caspase 1 at a high enzyme concentration to promote formation of the homodimers and thus facilitate the identification of allosteric inhibitors. The overall goal was to identify reversible inhibitors with better drug-like properties than the currently available set of aspartyl-containing peptidomimetics that covalently bind the active site. Caspase 1 was assayed using the profluorescent substrate Ac-WEHD-AFC. After initiation of the assay with substrate the plates were rapidly read using an automated robotic system (Kalypsys, Inc.) to maintain consistent timing. A kinetic mode of detection was used where the initial rate was collected (estimated final product formation was ~10%). Compounds were screened as a concentration-titration series that ranged from 57 uM to 0.7 nM. Below is the protocol used for caspase 1.
NCGC Assay Protocol Summary:
Caspase 1 was prepared in buffer (50 mM HEPES pH 7.5, 50 mM KCl, 200 mM NaCl, 10 mM DTT, 0.1% CHAPS) at a concentration of 66.6 nM and 3 uL was dispensed to all wells using black solid Kalypsys 1536-well plates. 20 nL of DMSO containing compounds was added using a pin-tool (Kalypsys Inc.) to columns 5-48. Then 20 nL of DMSO solution from a control plate was added to columns 1-4. Controls were: Column 1, 16 point titration with each concentration in duplicate (1:1 dilutions in DMSO; final starting concentration was 57 uM) of the caspase 1 inhibitor Ac-WEHD-CHO (Alexis Biochemicals); Column 2, a 16 point titration with each concentration in duplicate of the free AFC fluorophore prepared in DMSO (Alexis Biochemicals), final starting was 40 uM; Column 3 neutral (DMSO only) control; Column 4: DMSO alone, to serve as a negative control (no substrate was added). Then 1 uL of 20 uM the substrate Ac-WEHD-AFC (Alexis Biochemicals) prepared in the same buffer was dispensed to all wells except columns 2 and 4 and the plates were immediately transferred (< 1 min) to the Viewlux. The plates were then exposed using 405 nm excitation/520 nm emission filters for 4 sec and read at 20 sec intervals for 3 min. Final enzyme concentration was 50 nM and the final substrate concentration was 5 uM.
Concentration-response curves were fitted to the data calculated from slope of the linear regression of fluorescent intensity versus time (the rate). The concentration-effect curves were then classified based on curve quality (r2), response magnitude and degree of measured activity. […] Inconclusive compounds had appreciable concentration-dependent effects on both the measured rate and the interpolated basal fluorescence intensity at the start of the reaction but where the basal fluorescent intensity was marginal (e.g. < 10-fold). Inconclusive compounds also encompass highly fluorescent compounds (>100-fold increases in fluorescent intensities values relative to controls) where artificial concentration-dependent decreases in the rate occurred at high compound concentrations due to fluorescent interferences.
Keywords: Caspase 1, proteases, profluorescent, MLSMR, MLSCN, NIH Roadmap, qHTS, NCGC
Potency means the concentration at half of the fitted maximal effect; tags describe the fitted curve by direction and shape or compound fluorescence and quenching.

Row | Compound | activity change, negative = inhibition | Potency
1 | CCCn1cnc2c(SCc3ccc(Cl)cc3)nc(N)nc21 | inactive: 2.3% [at 11.5 µM] | –
2 | CSc1nc(-c2ccco2)cc(-c2ccccc2)c1C#N | – | inactive
3 | COc1ccc(-c2nc3cnc(N(C)C)nc3n(-c3ccccc3)c2=O)cc1 | – | inconclusive [fluorescent]
4 | N#CC1=C(N)Oc2c(sc3ccccc23)C1c1ccco1 (centres undefined) | – | inconclusive [inhibitor, partial curve]
5 | CN1CCN(c2ncc3nc(CCc4ccccc4)c(=O)n(CCC#N)c3n2)CC1 | – | inconclusive [inhibitor, partial curve]
6 | c1ccc(-c2cnc(-c3ccc(-c4ncc(-c5ccccc5)o4)cc3)o2)cc1 | – | inconclusive [inhibitor, single point]
7 | Cc1ccccc1Cn1cc(NC(=O)c2cc3nc(-c4ccco4)cc(C(F)(F)F)n3n2)cn1 | – | inconclusive [inhibitor, partial curve]
8 | C[N+](C)(C)c1ncnc2c1ncn2[C@@H]1CCCCO1 | inactive: 2.06% [at 11.5 µM] | –
9 | O=C(c1ccco1)N1CCN(S(=O)(=O)c2ccc(C3CCCCC3)cc2)CC1 | – | inactive
10 | O=C(Nc1sc2c(c1C(=O)NCc1ccco1)CCCC2)c1ccc2c(c1)OCO2 | – | inconclusive [inhibitor, single point]
11 | CCOc1ccc2[nH]c(=O)c(CN(Cc3nnnn3Cc3ccco3)C3CCCCC3)cc2c1 | inconclusive: -17.8% [inhibitor] | –
12 | Cc1cccc(N2CSC3=C(C#N)C(c4ccc(C)o4)CC(=O)N3C2)c1 (centres undefined) | – | inconclusive [inhibitor, partial curve]
13 | O=c1oc(-c2cccs2)nc2scc(-c3cccs3)c12 | – | inconclusive [inhibitor, partial curve]
14 | COc1ccc(OC)c(/C=N/c2oc(-c3ccco3)c(-c3ccco3)c2C#N)c1 | – | inconclusive [inhibitor, partial curve]
15 | O=c1c2ccccc2nc2sc3ccccc3n12 | – | inactive
16 | COCC(=O)Nc1sc2c(c1C(=O)OC)CCC(C)C2 (centres undefined) | – | inactive
17 | COc1cccc(Cn2c(=O)c(-c3cn(C)c4ccccc34)nc3cnc(OC)nc32)c1 | – | inconclusive [inhibitor, full curve]
18 | Cc1cc(-n2c(C)cc(C(=O)CSc3ncnc4ccccc34)c2C)no1 | – | inconclusive [inhibitor, partial curve]
19 | Cc1ccc(S(=O)(=O)Cn2nnnc2C(C(C)C)N2CCc3ccccc3C2)cc1 (centres undefined) | inconclusive: -15.3% [inhibitor] | –
20 | COc1ccc(OC2C=CC(c3ccccc3)OC2CO)cc1 (centres undefined) | inactive: -4.77% [at 11.5 µM] | –
21 | CCN1CCCC1CNC(=O)c1cc2c(C)nc3ccccc3c2o1 (centres undefined) | – | inactive
22 | c1coc(Cn2c(-c3ccco3)nc3ccccc32)c1 | – | inactive

Row | Compound | activity change, negative = inhibition | Potency
23 | COC(=O)C1=C(C)N(C)C(C)=C(C(=O)OC)C1c1ccccn1 | – | inconclusive [inhibitor, partial curve]
24 | CC(C)=CCC1=C(OCC(=O)O)C(=O)c2ccccc2C1=O | – | inconclusive [inhibitor, single point]
25 | Nc1nc(-c2ccc(Cl)c(Cl)c2)c(-c2ccncc2)s1 | inconclusive: -15% [inhibitor] | –
26 | O=C(c1ccc2c(c1)OCO2)[C@@H]1[C@@H]2C(=O)N(C3CCCCC3)C(=O)[C@@H]2C2c3ccccc3C=CN21 (some centres undefined) | – | inconclusive [inhibitor, single point]
27 | COc1ccc(-c2cc(C(F)(F)F)n3nc(C(=O)O)cc3n2)cc1OC | – | inconclusive [inhibitor, partial curve]
28 | O=C1C=C[C@@H](O)[C@H]2[C@@H]3C(=O)N(C4CCCCC4)C(=O)[C@@H]3CC[C@H]12 | inactive: 1.2% [at 11.5 µM] | –
29 | O=C(c1ccccc1)c1ccc2nc(N3CCCCC3)c3nncn3c2c1 | inconclusive: -17.6% [inhibitor] | –
30 | CNC1=C(Br)C(=O)c2ccncc2C1=O | – | inconclusive [inhibitor, full curve]
31 | CN(C)c1ccc(-c2cc(-n3ccnc3)ncn2)cc1 | – | inconclusive [inhibitor, partial curve]
32 | CCOC(=O)N/N=C1/C[C@@H](O)[C@@H](O)[C@@H]2[C@H]3C(=O)N(c4ccc(F)cc4F)C(=O)[C@@H]3CC[C@H]12 | inactive: -1.71% [at 11.5 µM] | –
33 | Cc1ccc(CNc2ccc3c(c2)OCO3)c(C)c1 | – | inconclusive [inhibitor, partial curve]
34 | O=S(=O)(c1cccc(-c2nnc(SCc3nc4ccccc4s3)o2)c1)N1CCOCC1 | inconclusive: -15.3% [inhibitor] | –
35 | COc1ccc(NC(=O)c2cc3cc(OC)ccc3oc2=N)cc1 | – | inconclusive [inhibitor, partial curve]
36 | O=C(c1cc2c(s1)CCCC2)n1cccn1 | – | inactive
37 | COc1ncc2nc(-c3cc(F)cc(F)c3)c(=O)n(C3CC3)c2n1 | inconclusive: -16.3% [inhibitor] | –
38 | CN/C=C1\C(=O)C(C)(C)Oc2ccc3ccc(=O)oc3c21 | – | inactive
39 | O=C(COC(=O)c1cc(-c2ccco2)nc2ccccc12)NCc1ccc2c(c1)OCO2 | – | inconclusive [inhibitor, partial curve]
40 | CCOC(=O)c1c2c(n3ccccc13)C(=O)c1ccccc1C2=O | inactive: 1.6% [at 11.5 µM] | –
41 | CC1(C)c2ccccc2N2CCC(=O)NC21/C=C/c1ccco1 (centres undefined) | – | inconclusive [inhibitor, single point]
42 | O=c1[nH]c2cc3c(cc2cc1C(c1nnnn1CC1CCCO1)N1CCCC1)OCO3 (centres undefined) | – | inconclusive [inhibitor, partial curve]
43 | CCOc1ccc(-c2[nH]nc3c2C(c2ccc4c(c2)OCO4)C(C#N)=C(N)O3)cc1OC (centres undefined) | – | inconclusive [inhibitor, single point]
44 | CCCCOC(=O)C(C#N)c1nc2ccccc2nc1N1CCOCC1 (centres undefined) | – | inconclusive [inhibitor, partial curve]
